# Results reported in patent US20070225221A1 (published 2007).
# B1: 2xL1 (N) (Fc fusion)
# chain: MGAQKFNPLDELEETLYEQFTFQQGGGGGGGKFNPLDELEETLYEQFTFQQLEGGGGG[human IgG1 Fc not written out]
# notes: Peptibody
# B2: 2xL1 (C) (Fc fusion)
# chain: [human IgG1 Fc not written out]GGGGGAQKFNPLDELEETLYEQFTFQQGGGGGGGKFNPLDELEETLYEQFTFQQLE
# notes: Peptibody
# Key:
# [1] = target: T1, human Ang-2 (human, UniProt O15123 19-496, limits assumed); experiment: neutralization ELISA; Tie-2-Fc on coated hAng-2
# T1 construct: also called hAng-2; huAng-2
# T1 sequence (looked up): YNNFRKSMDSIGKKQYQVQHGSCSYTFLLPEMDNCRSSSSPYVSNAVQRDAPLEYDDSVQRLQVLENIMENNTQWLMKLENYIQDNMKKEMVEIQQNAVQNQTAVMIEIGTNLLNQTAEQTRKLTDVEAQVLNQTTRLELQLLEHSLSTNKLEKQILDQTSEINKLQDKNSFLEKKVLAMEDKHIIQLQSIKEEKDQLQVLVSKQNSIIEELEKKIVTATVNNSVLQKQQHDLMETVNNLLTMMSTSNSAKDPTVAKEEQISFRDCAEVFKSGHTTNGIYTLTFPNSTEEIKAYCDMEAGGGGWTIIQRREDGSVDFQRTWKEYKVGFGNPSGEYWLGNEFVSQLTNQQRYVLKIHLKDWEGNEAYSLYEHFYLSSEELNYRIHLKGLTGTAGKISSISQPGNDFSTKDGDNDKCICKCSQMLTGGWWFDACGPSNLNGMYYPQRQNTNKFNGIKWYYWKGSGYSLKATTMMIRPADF
# [2] = target: T2, murine Ang-2 (murine, UniProt O35608 19-496, limits assumed); experiment: neutralization ELISA; Tie-2-Fc on coated mAng-2
# T2 construct: also called mAng-2
# T2 sequence (looked up): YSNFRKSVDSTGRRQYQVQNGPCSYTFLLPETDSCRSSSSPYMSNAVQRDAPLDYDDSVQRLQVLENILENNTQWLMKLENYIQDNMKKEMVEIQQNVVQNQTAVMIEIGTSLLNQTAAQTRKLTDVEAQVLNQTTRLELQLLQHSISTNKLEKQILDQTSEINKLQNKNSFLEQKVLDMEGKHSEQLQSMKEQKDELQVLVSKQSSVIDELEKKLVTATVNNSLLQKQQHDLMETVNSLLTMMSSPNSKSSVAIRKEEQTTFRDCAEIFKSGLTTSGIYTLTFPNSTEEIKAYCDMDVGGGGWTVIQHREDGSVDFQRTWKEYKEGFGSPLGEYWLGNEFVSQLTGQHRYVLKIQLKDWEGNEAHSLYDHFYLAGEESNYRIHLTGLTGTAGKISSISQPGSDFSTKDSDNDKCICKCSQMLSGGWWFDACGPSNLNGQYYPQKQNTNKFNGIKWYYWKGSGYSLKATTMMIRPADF
Binder,IC50 [1],IC50 [2]
B1,0.65 nM,0.8 nM
B2,0.9 nM,1 nM
